Experimental data from PubChem BioAssay (NCI).
“And” between values parts separate entries of the source, which are not always exact repeats. Equal values may be shown once.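 Grown in 96-well plates, cells were treated for 48 hours with each compound at five concentrations. Insufficient inhibition: endpoint recorded as highest concentration tested. Here, GI50 denotes the concentration required for 50% inhibition of growth. TGI denotes the concentration required for complete inhibition of growth.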

system: NCI-H322M lung; experiment: DTP human tumour cell line panel, 48 h

Structure (SMILES) | TGI | GI50
c1ccc([P+](Cc2ccc(C[P+](c3ccccc3)(c3ccccc3)c3ccccc3)s2)(c2ccccc2)c2ccccc2)cc1 | > 100 µM | –
Cc1ncc2c(n1)CCC1=C2OS(=O)(=O)CC1N(C)C (stereo not given) | > 100 µM | –
CCOC1OC(CO[Si](C)(C)C(C)(C)C)C(O)CC1n1ccc(=O)[nH]c1=O (stereo not given) | > 100 µM | –
CC(C)CC1C(=O)OC(C)(C)OC1=O | > 100 µM | –
Cc1ccc(C(=O)c2[nH]c(NCc3ccccc3)c(C(=S)Nc3ccccc3)c2N)cc1 | 11.4 µM | –
Nc1ncnc2c1ncn2C1OC(F)(COS(N)(=O)=O)C(O)C1O (stereo not given) | > 100 µM | > 100 µM
O=C(O)C(Cc1ccc(O)cc1)N=Cc1nc(-c2ccccc2)oc1O (stereo not given) | > 100 µM | –
COc1ccccc1OC/C(N=Cc1cccnc1)=N/NC(=O)c1ccncc1 | > 100 µM | –
C=C(Cl)C(Cl)(CBr)CCCC(C)C (stereo not given) | 31.9 µM | –
COc1cnc2oc3ccc(O)cc3c2c1-c1ccccc1 | > 100 µM | –
COc1ccc2[nH]c(=O)cc(C)c2c1[N+](=O)[O-] | > 100 µM | –
COc1c(O)ccc(/C=N/NC(=S)NCOCCOC(C)=O)c1OC | > 100 µM | –
CN(C)Cc1c[nH]c2nc[nH]c(=O)c12 | > 100 µM | –
CCOP(=O)(OCC)/C(C#N)=C/c1cccn1C | > 100 µM | –
C(#Cc1ccccc1C#Cc1cnccn1)c1cnccn1 | > 100 µM | 68.2 µM
CC(C)(C(=O)N(C(=O)N1CCN(c2ccccc2)CC1)S(=O)(=O)c1ccccc1)c1ccc(Cl)cc1 | > 100 µM | –
O=C(O)c1cc(-c2ccc3cc(O)c(O)cc3c2)ccc1O | > 12.5 µM | –
COc1ccc(-n2c(C)nc3ccc(NC4OCC(OC(C)=O)C(OC(C)=O)C4OC(C)=O)cc3c2=O)cc1 (stereo not given) | > 100 µM | –
O=C1C=C(c2ccccc2)NC1(c1ccccc1)c1cc(-c2ccccc2)[nH]c1-c1ccccc1 (stereo not given) | > 100 µM | –
CCCCCCCCCCCCCCCCNc1nc(=O)n(C2CC(O)C(COP(=O)(O)OC3CC(n4cc(F)c(=O)[nH]c4=O)OC3CO)O2)cc1F (stereo not given) | 31.3 µM | –
CC1=NN(c2nc(N)nc(CCl)n2)C(C)(C)C1 | > 100 µM | –
C=C1C(=O)OC2/C=C(\CO)C3OC3C3OC3(C)CC(OC(=O)/C(=C/C)COC(C)=O)C12 (stereo not given) | 37.1 µM | –
CCC(=O)NC(NNS(=O)(=O)c1ccc(C)cc1)(C(F)(F)F)C(F)(F)F | > 100 µM | –
CC1(C)CCOC(Sc2ccccc2)C1 (stereo not given) | > 100 µM | –
COc1ccc(C)cc1NC(=S)N/N=C/c1ccco1 | > 100 µM | –

Structure (SMILES) | TGI | GI50
COc1ccc(C2=NC(CO)[C@H](c3ccccc3)O2)cc1OC (stereo not given in full) | > 100 µM | –
COP(=O)(OC)[C@@](O)(c1ccccc1)[C@@H](O)[C@@H](O)c1ccccc1 | > 100 µM | –
O=C(Cn1c(C(=O)/C=C/c2ccc(Cl)c(Cl)c2)nc2ccccc21)c1ccccc1 | 51.3 µM | –
COc1cc(/C=C2\CC3C4CC=C5C[C@@H](N6CCCC6)CC[C@]5(C)C4CC[C@]3(C)[C@H]2OC(C)=O)ccc1OCCCn1ccnc1 (stereo not given in full) | 5.93 µM | 2.19 µM
O=C(Nc1cccc2[nH]c(C(F)(F)F)nc12)c1ccc(Br)cc1F | 12.9 µM | 3.36 µM
COc1ccc(-n2c(C)nc3ccc(NC4OC(COC(C)=O)C(OC(C)=O)C(OC(C)=O)C4OC(C)=O)cc3c2=O)cc1 (stereo not given) | > 100 µM | –
Nc1ccccc1SC(CC(=O)c1ccccc1)c1c(Cl)cccc1Cl (stereo not given) | 29.8 µM | 13.1 µM
O=S(=O)(c1ccccc1)C1(C2(S(=O)(=O)c3ccccc3)CCN=N2)CCN=N1 (stereo not given) | > 100 µM | –
ON[C@@H]1C=C[C@H](n2cnc3c(NC4CC4)ncnc32)C1 | > 100 µM | –
COc1cccc(/C=N/[N+](C)(C)C)c1O | > 10 µM | –
N=c1oc2ccccc2cc1C(=O)Nc1ccccn1 | > 100 µM | –
C[C@]12CC/C(=N\OCCN3CCCC3)C=C1CCC1C2CC[C@@]2(C)C1CC[C@]2(C)O (stereo not given in full) | 32.4 µM | –
CCOC(=O)/C(=C\n1c(=O)sc2ccccc21)C(=O)c1ccccc1 | > 100 µM | –
COc1ccc2c(c1)C1Oc3ccccc3CC1CO2 (stereo not given) | > 100 µM | –
CCOC(=O)c1c(C)n(Cc2ccc(Cl)cc2Cl)c2c1cc(O)c1[nH]c(Cc3ccccc3)nc12 | 21 µM | 4.96 µM
COc1cc2c(cc1OCCCN1CCOCC1)N=C[C@@H]1CCCN1C2=O | 76.4 µM | –
COC(=O)/C=C1/OC(c2ccccc2)=C(Br)C1=O | > 100 µM | –
Cc1ccc(S(=O)(=O)NC(=O)Nc2ncn[nH]2)cc1 | > 100 µM | –
COc1ccc(-c2cc(-c3ccco3)c(C#N)c(=O)n2C2OC(COC(C)=O)C(OC(C)=O)C(OC(C)=O)C2OC(C)=O)cc1 (stereo not given) | > 100 µM | > 100 µM and 44.9 µM
COC(=O)c1ccc(C)cc1C1CN=NC12Cc1c(C)cccc1C2=O (stereo not given) | > 100 µM | –
COc1ccccc1NC(=S)Nc1ccccn1 | > 100 µM | –
NC(=S)N/N=C1\CCc2ccccc2C1 | > 100 µM | –
COc1ccc(/C=C2\CC3C4CC=C5C[C@@H](N6CCCC6)CC[C@]5(C)C4CC[C@]3(C)[C@H]2O)cc1OC (stereo not given in full) | 16.7 µM | –
CCCCCCCCC#CCCCCCCC(F)C(=O)O (stereo not given) | > 100 µM | –
COc1ccc(C)cc1-c1ccc(-c2cc(C)ccc2OC)o1 | > 100 µM | –

Structure (SMILES) | TGI | GI50
COC(=O)C(C(=O)C(=O)Nc1nc2ccc(OC)cc2s1)c1cnc2ccccc2n1 (stereo not given) | > 100 µM | –
CSc1nc2c(ncn2C2OC(CO)C(O)C(O)C2O)c(=O)n1C (stereo not given) | > 100 µM | –
NNC(=O)c1cc(Cl)ccc1NC(=O)C12CC3CC(CC(C3)C1)C2 | 56.8 µM | –
CC(C)(C)c1cc(C(C)(C)C)c(SSc2c(C(C)(C)C)cc(C(C)(C)C)c(O)c2O)c(O)c1O | > 100 µM | –
CCc1n[nH]c(=O)n1N | > 100 µM | –
O=C(NC1C(=O)NC(CCc2ccccc2)NC1=O)OCc1ccccc1 (stereo not given) | > 100 µM | –
C=CCNC(=S)NC=C(C(N)=O)C(N)=O | > 100 µM | –
CCOC(=O)N1C/C(=C\c2ccc(N(C)C)cc2)C(=O)/C(=C/c2ccc(N(C)C)cc2)C1 | > 100 µM | –
COc1ccc(/C(=N/O)c2cc(F)c(F)c(OC)c2F)cc1O | > 100 µM | 1.74 µM
Nc1nc(N)c2ncn(Cc3ccccc3CO)c2n1 | > 100 µM | –
N#C/C(=C\c1ccccn1)c1nc2ccccc2o1 | > 100 µM | 42.8 µM
c1ccc2c(c1)n1c(N3CCCC3)[n+]3ccccc3c1c1c3cccc[n+]3c(N3CCCC3)n21 | > 100 µM | –
CN1CC[C@@]2(c3cccc(O)c3)CC(=O)/C(=C/c3ccc(Cl)c(Cl)c3)[C@H]1C2 | 14.6 µM | –
Nc1nc2cc(COc3ccc(C(=O)O)cc3)ccc2nc1-c1ccccc1 | > 10 µM | –
CC1=C(C(=O)Nc2cc(F)c(F)cc2F)C(c2ccc(N(C)C)cc2)C(C(=O)Nc2cc(F)c(F)cc2F)=C(C)N1 | 97.4 µM | –
Cc1ccc(C)c(NC(=O)C(=O)C(C2C(C)CC(=O)C2CC(=O)O)[N+](=O)[O-])c1 (stereo not given) | > 100 µM | –
O=C1C[C@@H]2[C@@H](C=CC23CCCC3)N1O | > 100 µM | –
CC(C)(CO)CNc1nc(N)nc(Cl)c1C=O | > 100 µM | –
O=C1/C(=C/c2ccc([N+](=O)[O-])s2)Oc2ccc(Br)cc21 | 5.88 µM | 1.95 µM
Cc1nc2sc(C(=O)Nc3cccc4c3OCCO4)c(N)c2cc1C(C)O (stereo not given) | > 100 µM | 8.82 µM
CCOC(=O)C1=C(C)N(Cc2ccccc2)C2(O)C=CC(=O)C3C(=O)N(c4ccccc4)C(=O)C132 (stereo not given) | 27 µM | –
COc1cccc2c1C(=O)c1c(O)c3c(c(O)c1C2=O)C[C@@](O)(C(=O)CO)C[C@@H]3OC1CC2C(OCN2CN2COC3C(C)OC(O[C@H]4C[C@](O)(C(=O)CO)Cc5c(O)c6c(c(O)c54)C(=O)c4c(OC)cccc4C6=O)CC32)C(C)O1 (stereo not given in full) | 0.0816 µM | 0.025 µM
O=[N+]([O-])c1cc2c(ccc3ccccc32)o1 | 5.67 µM | 1.66 µM
COc1cc(Br)c(C=Nc2cccc3ccc(OS(=O)(=O)c4ccc([N+](=O)[O-])cc4)cc23)cc1OC | > 100 µM | –
COC(=O)N1C=CC2=C(C)C3Nc4ccccc4C3C(C)=C2C1 (stereo not given) | 47 µM | –

Structure (SMILES) | TGI | GI50
Cc1ccccc1-n1c(=O)nc2n(-c3ccc(C(C)(C)C)cc3)c3ccccc3cc-2c1=O | 50.6 µM | –
COc1ccc(C(=O)c2[nH]c(Nc3cc(C)ccn3)c(C(=S)Nc3ccccc3)c2N)cc1 | 38.5 µM | –
COc1ccc(-c2c(C#N)c(N)nc(Sc3ccccc3N)c2C#N)cc1 | > 100 µM | –
CCc1cn(C2CC(CO)C(CO)S2)c(=O)[nH]c1=O (stereo not given) | > 100 µM | –
COc1cccc(/C=C2\COc3ccc(O)c(O)c3C2=O)c1OC | 16.4 µM | 4.3 µM
CCN(CC)CCNc1ccc2nc(C)n3c4ccc(OC)cc4c(=O)c1c23 | 16.9 µM | –
CCCOC(=O)C1C(c2ccc(OC)cc2)NC(c2ccc(OC)cc2)C(C(=O)OCCC)S1(=O)=O (stereo not given) | > 100 µM | > 100 µM
CC(=O)O[C@H]1[C@@H](N2CCCCC2)C[C@H]2[C@@H]3CC=C4C[C@@H](N5CCCC5)CC[C@]4(C)[C@H]3CC[C@@]21C | > 100 µM | –
COc1ccc(C(=O)c2no[n+]([O-])c2C(=O)c2ccc(OC)cc2)cc1 | > 54.1 µM | 35.7 µM
C=CC(=O)N1CCN(c2nc(OC[C@@H]3CCCN3C)nc3c(F)c(-c4nc(N)cc(C)c4C(F)(F)F)c(Cl)cc23)[C@@H](C)C1 | 19.2 µM | 6.12 µM
c1ccc(Nc2nnc(-c3ccccc3Nc3ccccc3-c3nnc(Nc4ccccc4)s3)s2)cc1 | > 100 µM | –
C=CCn1c(C)nc2cc(Nc3nc(N4CCCC4)nc4nc[nH]c34)ccc21 | > 100 µM | > 100 µM
CCOC(=O)C(c1ccsc1)P(=O)(OCC)OCC (stereo not given) | 31.3 µM | –
O=C1C=CC(=O)N1c1ccc2ccccc2c1 | 33 µM | 16.8 µM
COC(=O)C1=CCC[C@H]2[C@@]1(COC(C)=O)CC[C@@H](C)[C@]2(C)CC(=O)c1ccoc1 | > 50 µM | –
Cc1nc2ccccc2c(/C=C/c2ccc(F)cc2)c1C(=O)/C=C/c1ccccc1 | > 100 µM | 3.32 µM
CSc1cc(Cl)c(C(=O)Nc2ccccc2)cc1S(=O)(=O)n1cc[nH]c1=O | > 100 µM | –
CC(=O)OC1C(C)OC(Oc2c(-c3ccc(O)cc3)oc3cc(O)cc(O)c3c2=O)C(O)C1OC(C)=O (stereo not given) | 99.8 µM | 30.2 µM
COc1cc(C2c3cc4c(cc3[C@@H](Nc3cnc5ccccc5c3)C3COC(=O)[C@H]23)OCO4)cc(OC)c1O (stereo not given in full) | > 29.6 µM | –
COc1cccc(C2=C(c3cn(C)c4c(C)cccc34)C(=O)NC2=O)c1 | > 25 µM | > 25 µM
C1=C(c2ccccc2)NC2=N[C@H]3CCCC[C@@H]3N2C1c1ccccc1 (stereo not given in full) | 24.3 µM | –
CC[P+](C)(C)CC | > 100 µM | –
O=C1CC2=CCCC2O1 (stereo not given) | > 100 µM | –
